Assay results: ChEMBL document CHEMBL3525906, “A comprehensive assessment of repaglinide metabolic pathways: impact of choice of in vitro system and relative enzyme contribution to in vitro clearance” (Drug Metab Dispos, 2012)

Assays:
Format in all cases: ADME
[1] = substrate: CCOc1cc(CC(=O)N[C@@H](CC(C)C)c2ccccc2N2CCCCC2)ccc1C(=O)O; experiment: Activity of human recombinant CYP3A4 expressed in insect cells assessed as enzyme-mediated 2-despiperidyl-2-amino repaglinide formation by LC-MS/MS method
[2] = substrate: CCOc1cc(CC(=O)N[C@@H](CC(C)C)c2ccccc2N2CCCCC2)ccc1C(=O)O; experiment: Activity of human recombinant CYP3A4 expressed in insect cells assessed as enzyme-mediated 3'-hydroxy repaglinide formation per picomole of protein at 0.5 to 150 uM by LC-MS/MS method
[3] = substrate: CCOc1cc(CC(=O)N[C@@H](CC(C)C)c2ccccc2N2CCCCC2)ccc1C(=O)O; experiment: Activity of human recombinant CYP3A4 expressed in insect cells assessed as enzyme-mediated 3'-hydroxy repaglinide formation by LC-MS/MS method
[4] = substrate: CCOc1cc(CC(=O)N[C@@H](CC(C)C)c2ccccc2N2CCCCC2)ccc1C(=O)O; experiment: Activity of human recombinant CYP3A4 expressed in insect cells assessed as enzyme-mediated 2-despiperidyl-2-amino repaglinide formation per picomole of protein at 0.5 to 150 uM by LC-MS/MS method

B1: Cytochrome P450 3A4 (Homo sapiens) (protein)
chain: MALIPDLAMETWLLLAVSLVLLYLYGTHSHGLFKKLGIPGPTPLPFLGNILSYHKGFCMFDMECHKKYGKVWGFYDGQQPVLAITDPDMIKTVLVKECYSVFTNRRPFGPVGFMKSAISIAEDEEWKRLRSLLSPTFTSGKLKEMVPIIAQYGDVLVRNLRREAETGKPVTLKDVFGAYSMDVITSTSFGVNIDSLNNPQDPFVENTKKLLRFDFLDPFFLSITVFPFLIPILEVLNICVFPREVTNFLRKSVKRMKESRLEDTQKHRVDFLQLMIDSQNSKETESHKALSDLELVAQSIIFIFAGYETTSSVLSFIMYELATHPDVQQKLQEEIDAVLPNKAPPTYDTVLQMEYLDMVVNETLRLFPIAMRLERVCKKDVEINGMFIPKGVVVMIPSYALHRDPKYWTEPEKFLPERFSKKNKDNIDPYIYTPFGSGPRNCIGMRFALMNMKLALIRVLQNFSFKPCKETQIPLKLSLGGLLQPEKPVVLKVESRDGTVSGA
Km [1]: 8.7 µM | kcat [2]: 0.0015 s⁻¹ | Km [3]: 47 µM | kcat [4]: 0.0167 s⁻¹
